# Measurements from PubChem BioAssay AID540317 (National Center for Advancing Translational Sciences (NCATS), 2011).
# Hit rate of the full screen: of about 390,000 compounds, about 2,200 (0.56%) were called active. Inconclusive means that the source gave no clear call. Such entries were picked first, then a sample of the others. Calls come from the whole dose curve; as a rule, active = well fitted inhibition curve with a large enough effect; inconclusive = small, poorly fitted or top-dose-only effect; inactive = no such curve, though single readings can be large or run the other way. Where the call is inconclusive, the potency comes from a doubtful curve fit.
# Target: Chromobox protein homolog 1 (Homo sapiens) (UniProt P83916)
# Assay: HTS for Inhibitors of HP1-beta Chromodomain Interactions with Methylated Histone Tails; note: nearly all actives have a fitted effect of over 70% in size
# Conditions: AlphaScreen HP1-beta / biotin-H3K9me3 peptide binding; series mostly up to 114 µM; activity change, negative = inhibition: at the top concentration
# Method in brief: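 Compound inhibition of the preformed complex between 50 nM HP1-beta and 50 nM biotinylated H3K9me3 peptide was read by AlphaScreen. Buffer was PBS pH 7.4 with 0.01% Tween-20. Incubations ran 30 min at room temperature, with 10 ug/mL donor/acceptor beads.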
# Potency is the fitted concentration of half-maximal effect; tags give direction and shape of the fitted curve.
# Chain of UniProt P83916 (P83916 whole entry, looked up): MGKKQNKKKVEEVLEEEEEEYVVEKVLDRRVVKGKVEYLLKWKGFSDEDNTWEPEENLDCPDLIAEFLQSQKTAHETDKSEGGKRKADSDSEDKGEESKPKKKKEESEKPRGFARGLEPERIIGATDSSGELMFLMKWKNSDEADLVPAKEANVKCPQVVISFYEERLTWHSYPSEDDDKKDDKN
SMILES,Potency,"activity change, negative = inhibition"
COc1cccc(CN(C)CC(=O)NCc2ccc(C)cc2)c1,"inconclusive: 25.1 µM [inhibitor, single point]",–
C/C(=N/NC(=O)c1cc(-c2cccc([N+](=O)[O-])c2)n[nH]1)c1cccc(O)c1,–,inactive: 22.3%
Cc1c(C)n(C)c2ccc(C(=O)NCCCN3CCN(c4ccccc4F)CC3)cc12,"inconclusive: 22.4 µM [inhibitor, full curve]",–
Cc1cc(/C=C2\SC(=S)N(Cc3ccco3)C2=O)c(C)n1-c1ccccc1,"inconclusive: 7.94 µM [inhibitor, full curve, poor fit]",–
O=C(COC(=O)CCC(=O)c1ccc(F)cc1)NCc1ccc(Cl)cc1,–,inactive: 12.7% [at 57 µM]
Cc1ccc(OCCOc2cccc(Br)c2)c([N+](=O)[O-])n1,–,inactive: 20.2%
NC(=S)n1[nH]c(-c2ccc([N+](=O)[O-])cc2)c(N=Nc2ccc(O)cc2)c1=O,"inconclusive: 28.2 µM [inhibitor, partial curve]",–
COc1ccc(C2CC(c3ccccc3)=NN2c2ccc(N)cc2)cc1 (stereo not drawn),"inconclusive: 56.2 µM [inhibitor, partial curve, poor fit]",–
COc1cccc(CNC2CCCc3ccccc32)c1OC (stereo not drawn),"inconclusive: 56.2 µM [inhibitor, partial curve, poor fit]",–
CCc1ccc(NC2CC(=O)N(CCc3ccc(OC)c(OC)c3)C2=O)cc1 (stereo not drawn),"inconclusive: 39.8 µM [inhibitor, full curve]",–
Cc1ccc(Nc2nc(-c3sc(N)nc3C)cs2)cc1,"inconclusive: 10 µM [inhibitor, full curve]",–
CCOc1cc(/C=C2\CN(C)C/C(=C\c3ccc(O)c(OCC)c3)C2=O)ccc1O,"inconclusive: 50.1 µM [inhibitor, partial curve]",–
CCc1ccc(-n2c(=O)c3c(C)c(C(=O)N(C)C)sc3n(CC(=O)Nc3cc(Cl)ccc3C)c2=O)cc1,–,inactive: 36.3%
CC1=C(C(=O)c2ccccc2)C(c2ccc(OC(F)F)cc2)NC(=S)N1 (stereo not drawn),"inconclusive: 44.7 µM [inhibitor, partial curve]",–
CC(NCc1cccs1)C(=O)NC1CCCCC1 (stereo not drawn),"inconclusive: 14.1 µM [inhibitor, full curve]",–
O=C(NCCCN1CCOCC1)c1sc2cc([N+](=O)[O-])ccc2c1Cl,"inconclusive: 7.94 µM [inhibitor, full curve]",–
CC(C)(C)CN1CCN(CC#Cc2ccccc2)CC1CCO (stereo not drawn),–,inactive: 20.7%
Cc1ccc(S(=O)(=O)/N=C(/NC(=S)Nc2cccc(C)c2)c2ccccc2)cc1,"inconclusive: 25.1 µM [inhibitor, full curve]",–
CCOc1ccc(NC(c2ccccn2)c2oc(CO)cc(=O)c2O)cc1 (stereo not drawn),"inconclusive: 17.8 µM [inhibitor, full curve]",–
COc1cc2c(cc1Cl)/C(=C\CCN(C)C)c1ccccc1S2,"inconclusive: 56.2 µM [inhibitor, single point]",–
Cc1ccc(-c2nc(C)c(CCNC(=O)C(=O)Nc3ccc4c(c3)OCCO4)s2)cc1,–,inactive: 27.5% [at 57 µM]
COc1cc(/C=C2/SC(=S)N(CC(=O)O)C2=O)ccc1OC(=O)c1cccs1,"inconclusive: 44.7 µM [inhibitor, partial curve]",–
CCCCn1c(SCC(=O)c2ccc(O)c(O)c2)nc2ccsc2c1=O,"inconclusive: 28.2 µM [inhibitor, single point]",–
C=CCn1c(C)cc(C2=NNC(=NCc3ccccc3)SC2)c1C,"inconclusive: 39.8 µM [inhibitor, partial curve]",–
CCOc1cc(C2C(C(=O)OC)=C(C)NC3=C2C(=O)c2ccccc23)ccc1O (stereo not drawn),"inconclusive: 35.5 µM [inhibitor, partial curve]",–

SMILES,Potency,"activity change, negative = inhibition"
CCOc1ccc(CNC(=O)C2CCCN(c3nc4c(C)cc(C)cc4s3)C2)cc1 (stereo not drawn),–,inactive: 42.4%
FC(F)(F)c1ccccc1-n1ccnc1,–,inactive: 24.5%
COc1ccc(N2C(=O)C(=O)/C(=C(/O)c3ccc(C)cc3)C2c2cccnc2)cc1 (stereo not drawn),–,inactive: -0.0241%
CCNC(=O)/C(C#N)=C/c1c(N2CCN(c3ccccc3)CC2)nc2c(C)cccn2c1=O,"inconclusive: 50.1 µM [inhibitor, partial curve]",–
COc1ccc(NC(=O)c2ccco2)cc1N,–,inactive: 11.7%
C[C@@H]1O[C@@H](Oc2c(-c3cc(O)c(O)c(O)c3)oc3cc(O)cc(O)c3c2=O)[C@H](O)[C@H](O)[C@H]1O,"inconclusive: 8.91 µM [inhibitor, full curve]",–
O=C(Nc1cccc(C(=O)N2CCCCC2)c1)c1nsc2ccccc12,–,inactive: 13.3% [at 57 µM]
COc1ccc(C(=O)CSc2ncnc3nc[nH]c23)cc1,–,inactive: 30.1%
O=C(NCCc1ccccc1)c1ccc2c(=O)[nH]c3c(C(=O)NCC4CCCO4)sc(=S)n3c2c1 (stereo not drawn),"inconclusive: 28.2 µM [inhibitor, single point]",–
Cc1cccc(C)c1Nc1c(-c2ccsc2)nc2ccccn12,"inconclusive: 20 µM [inhibitor, partial curve, poor fit]",–
CCN(CC)c1ccc(CNc2nc3ccccc3n2CCN2CCCCC2)cc1,"inconclusive: 22.4 µM [inhibitor, partial curve]",–
OCC[C@@H]1C[C@H](O)[C@@H](O)[C@@]2(CCc3ccccc3CO2)O1,–,inactive: 28%
Cc1ccc(-c2nnc(-c3ccccc3)c(-c3ccccc3)n2)cc1,–,inactive: 34.5%
CSc1ccc(/C=C/C(=O)OCC(=O)c2ccc[nH]2)cc1,–,inactive: 23.4%
CCc1nnc(NS(=O)(=O)c2ccc(Nc3ccc([N+](=O)[O-])c4nonc34)cc2)s1,"inconclusive: 39.8 µM [inhibitor, partial curve]",–
Cc1ccc2nc(SCC(=O)c3cc(C)n(C)c3C)[nH]c2c1,–,inactive: -15%
O=C(c1ccco1)N1CCN(Cc2ccc(Cl)cc2)CC1,"inconclusive: 63.1 µM [inhibitor, single point]",–
Nc1ccc(S(=O)(=O)c2cccc(N)c2)cc1,–,inactive: 17.1%
COc1ccc(-c2cc3ccccc3[nH]2)cc1,"inconclusive: 50.1 µM [inhibitor, partial curve]",–
Cc1sc(NC(=O)C2=COCCO2)c(C#N)c1C,"inconclusive: 31.6 µM [inhibitor, partial curve]",–
Cc1ccc(S(=O)(=O)NCC(c2ccc(N(C)C)cc2)N2CCCC2)cc1 (stereo not drawn),"inconclusive: 44.7 µM [inhibitor, partial curve]",–
CCOC(=O)C1C(=O)NC(SC)=C(C#N)C1c1ccccc1F (stereo not drawn),–,inactive: 5.01%
Cc1cc(C(=O)COC(=O)c2cccn2C)c(C)n1Cc1ccco1,"inconclusive: 31.6 µM [inhibitor, full curve]",–
COC(=O)c1ccn(CSc2c(F)c(F)cc(F)c2F)n1,–,inactive: 46.6%
O=C1CCCN1CN1CCCCC1,"inconclusive: 22.4 µM [inhibitor, partial curve, poor fit]",–

SMILES,Potency,"activity change, negative = inhibition"
CC(C)N1C/C(=C/c2ccsc2)C(=O)/C(=C/c2ccsc2)C1,–,inactive: -12.5%
O=C(Nc1cccc(Cl)c1)c1c(NC(=O)C(F)(F)F)sc2c1CCCC2,"inconclusive: 12.6 µM [inhibitor, full curve]",–
Cc1[nH]c2ccc(-c3n[nH]c(=S)n3C)cc2c1C,"inconclusive: 35.5 µM [inhibitor, single point]",–
COc1cc(OC)c2c(c1C(CCN1CCN(c3ccccc3)CC1)c1ccc(N(C)C)cc1)OC(=O)CC2c1ccc(N(C)C)cc1 (stereo not drawn),"inconclusive: 10 µM [inhibitor, full curve, poor fit]",–
CCCCNC(=O)c1onc(CSc2nc3ccccc3[nH]2)c1C(=O)NCCCC,–,inactive: 36.7%
COc1ccc(CN2CCN(C(=O)c3ccco3)CC2)c(OC)c1OC,"inconclusive: 15.8 µM [inhibitor, full curve]",–
CCn1cc(C(=O)NCc2ccccn2)c(=O)c2cc(F)c(N3CCN(C)CC3)cc21,–,inactive: 23.1%
Cn1c(=O)n(C)c2cc(NS(=O)(=O)c3ccccc3)c(NCc3ccccc3)cc21,"inconclusive: 79.4 µM [inhibitor, partial curve]",–
CC1(C)Cc2c(sc(/N=C/N3CCCCCC3)c2C#N)C(C)(C)N1,–,inactive: 18.6%
CC(C)OCCCNC(=O)c1cc(S(=O)(=O)N2CCc3ccccc32)cn1C,–,inactive: 26.5%
CCOC(=O)N1CCC(N2CCN(S(=O)(=O)c3ccc(C)cc3)CC2)CC1,"inconclusive: 10 µM [inhibitor, full curve]",–
CC(C)c1ccc(/C=N/n2c(COc3ccccc3)n[nH]c2=S)cc1,active: 39.8 µM,–
CC1CC(C)CN(CCCSc2ccccc2)C1 (stereo not drawn),"inconclusive: 28.2 µM [inhibitor, full curve]",–
COc1ccccc1C(=O)Nc1cc2c(cc1N1CCCCC1)n(C)c(=O)n2C,–,inactive: -23%
O=C(Nc1nc(-c2ccccn2)cs1)Nc1ccc(F)cc1F,"inconclusive: 8.91 µM [inhibitor, full curve]",–
COC(=O)C1C(=O)C(C(=O)/C=C/c2ccccc2)C(=O)CC1(C)C (stereo not drawn),–,inactive: 28.8%
O=C(C[n+]1cc(-c2ccccc2)n2c1CCC2)Nc1nc(-c2ccc(F)cc2)cs1,"inconclusive: 25.1 µM [inhibitor, single point]",–
COCCCNCCOc1ccc(C)cc1[N+](=O)[O-],"inconclusive: 56.2 µM [inhibitor, partial curve, poor fit]",–
COc1ccc(NC(=O)c2cnn(-c3ccc(C)cc3)c2-n2cccc2)cc1Cl,–,inactive: 2.94%
CC(C)(C)c1ccc(CNC(=O)C2CCCN2C(=O)Nc2ccccc2)cc1 (stereo not drawn),–,inactive: -12.4%
CCCCCC(=O)c1ccc(O)cc1O,–,inactive: 27.6%
Nc1cc(C(F)(F)F)ccc1NCCc1ccccn1,"inconclusive: 79.4 µM [inhibitor, single point]",–
Cc1cc2nc(NCCCO)n(CC(=O)c3cc(C(C)(C)C)c(O)c(C(C)(C)C)c3)c2cc1C,"inconclusive: 35.5 µM [inhibitor, partial curve]",–
